# Laboratory results reported in the RNAGym collection of RNA variant scans (doi:10.7554/elife.90254).
# The source gives no read counts; variants with many changes may rest on few reads.
# B1: OR4K15 (parent)
# chain: GUUAACGGUCAUAGGCCAUGGAAACUAGGAGCACCAUUUCGCUGCCAGUGAAGAAAUGAACAAAGAAAAUCUGGGCCAGGCAGGCAUCAAAAGAAAUAGUCUUGCGCUCAACCAGAAAGUCUGUAAUCAUUUUAAGGGUA
# Variants of: B1
# Assay: self-cleavage, relative activity (ratio to wild type); higher = more cleavage; in vitro, sequencing; the parent is a self-cleaving ribozyme
row,Variant,self-cleavage
1,GUUAACGGUCAUAGGCCAUGGAAACUAGGAGCACCAUUUCGCUGCUAGUGAAGAAAUGAACAAAGAGAAUCUGGGCCAGGCAGGCAUCAAAAGAAAUAGUCUUGCGCACAACCAGAAAGUCUGUAACCAUUUUAAGGGUA [C46U A67G U108A U127C],0.04
2,GUUAACGGUCAUAGGCCAUGGAAACUAGGAGCACCAUUUCGCUACCAGUGAAGAAAUGAACAAAGAAAAUCUGGGCCAGGCAGGCAUCAAAUGAGAUAGUCUUGCGCUCAACCAGAGAGUCUGUAAUCAUUUUAAGGGUA [G44A A92U A95G A117G],1.98
3,GUUAACGGUCAUAGGCCAUGGAAACUAGGAGCACCAUUUCGCUACCAGUGUAGAAAUGAACAAAGAAAAUCUGGGCCAGGCCGGCAUCAAAAGAAAUAGUCUUGCGCUCAACCAGAAAGUCUGUAAACAUUUUAAGGGUA [G44A A51U A82C U127A],0.06
4,GUUAACGGUCAUAGGCCAUGGAAACUAGGAGCACCAUUUCGCUACCAGUGAAGAAAUGAACAAAGAAAAUCUGGGCCAGGCAGGCAUCAAAAGAAAUAGUCUUGCGCUCAACCAGAGGGUCUGUAAUCAUUUUAAGGGUA [G44A A117G A118G],2.8
5,GUUAACGGUCAUAGGCCAUGGAAACUAGGAGCACCAUUUCGCUACCGGUGAGGAAAUGAACAAAGAAAAUCUGGGCCAGGCAGGCAUCAAAAGAAAUAGUCUUGCGCUCGACCAGAAAGUCUGUAAUCAUUUUAAGGGUA [G44A A47G A52G A110G],0.17
6,GUUAACGGUCAUAGGCCAUGGAAACUAGGAGCACCAUUUCGCUGCUAGUGAAGAAAUGAACAAAGAAAAUCUGGGCCAGGCAGGCAUCAAAAGAAGUAGUCUUGCGCUCACCCAGAAAGUCUGUAAUCAUUUUAAGGGUA [C46U A96G A111C],0.01
7,GUUAACGGUCAUAGGCCAUGGAAACUAGGAGCACCAUUUCGCUGUCAGUGAAGAAAUGAACAAAGAAAGUCUGGGCCAGGCAGGCAUCUAAAGAAAUAGUCUUGCGCUCAACCAGAAAGUCUGUAAUCAUUUUAAGGGUA [C45U A69G A89U],0.89
8,GUUAACGGUCAUAGGCCAUGGAAACUAGGAGCACCAUUUCGCUGUCAGAGAGGAAAUGAACAAAGAAGAUCUGGGCCUGGCAGGCAUCAAAAGAAAUAGUCUUGCGCUCAAUCAGAAAGUCUGUAAUCAUUUUAAGGGUA [C45U U49A A52G A68G A78U C112U],0.02
9,GUUAACGGUCAUAGGCCAUGGAAACUAGGAGCACCAUUUCGCUGCUAGUGAAGAAAUGAACGAAGAAAAUCUGGGCCAGGCAGGCAUCAAAAGAAAUAGUCUUGCGCUCAACCAGAAAGUCCGUAAUCAUUUUAAGGGUA [C46U A62G U122C],2.1
10,GUUAACGGUCAUAGGCCAUGGAAACUAGGAGCACCAUUUCGCUGCAAGUGAAGAAAUGAACAAAGAUAAUCUGGGCCAGGCAGGCAUCAAAAGAAAUAGUCUUGCGCUCGACCAGAAAGUCUGCAAUCAUUUUAAGGGUA [C46A A67U A110G U124C],0.09
11,GUUAACGGUCAUAGGCCAUGGAAACUAGGAGCACCAUUUCGCUGCCCGUGAAGAAAUGGACAAAGAAAAUCUGGGCCAGGCAGGCUUCAAAAGAAAUAGUCUUGCGCUCAACCAGAAAGUCUGUAAUCAUUUUAAGGGUA [A47C A59G A86U],1.78
12,GUUAACGGUCAUAGGCCAUGGAAACUAGGAGCACCAUUUCGCUACCAGUGGAGAAAUGAACAAAGAAAAUCUGGGCCAGGCAGGCAUCAAAAGAAAUAGUCUUGCGCUCAACCAGAAAGUCUGUAGUCAUUUUAAGGGUA [G44A A51G A126G],1.65
13,GUUAACGGUCAUAGGCCAUGGAAACUAGGAGCACCAUUUCGCUACCAGUGAAGAAAUGAACGAAGAAAAUCUGGGCCAGGCAGGCAUCAAAAGAAAUAGUCUUGCGCCCAACCAGAAAGUCUGUAAUCAUUUUAAGGGUA [G44A A62G U108C],0.04
14,GUUAACGGUCAUAGGCCAUGGAAACUAGGAGCACCAUUUCGCUGCUAGUGAAGAAAUGAACAAAGAAAAUCUGGGCCGGGUAGGCAUCAAAAGAAAUAGUCUUGCGCUCAACCAGAAAGUCUGUAAUCAUUUUAAGGGUA [C46U A78G C81U],0.1
15,GUUAACGGUCAUAGGCCAUGGAAACUAGGAGCACCAUUUCGCUUCCAGUGAAGAGAUGAACAAAGAAAAUCUGGGCCAGGCAGGCAUCAAAAGAAAUAGUCUUGCGCUCAGCCAGAAAGUCUGAAAUCAUUUUAAGGGUA [G44U A55G A111G U124A],0.03
16,GUUAACGGUCAUAGGCCAUGGAAACUAGGAGCACCAUUUCGCUACCAGUGAAGAAAUGAACAAAGAAAAUCUGGGCCAGGCAGGCAUCAAAAGAAAUAGUCUUGCGCUCAACCAGGAAGACUGGAAUCUUUUUAAGGGUA [G44A A116G U120A U124G A129U],0.07
17,GUUAACGGUCAUAGGCCAUGGAAACUAGGAGCACCAUUUCGCUGCUAGUGAAGAAAUGAACAAAGAAAGUCUGGGCCAGGCAGGCAUCAAAAGAAAUAGUCUUGCGCUCAACCAGAAAGUCCGUAAUCAUUUUAAGGGUA [C46U A69G U122C],1.37
18,GUUAACGGUCAUAGGCCAUGGAAACUAGGAGCACCAUUUCGCUACCAGUGAAGAAAUGAACAAAGAAGAUCUGGGCCAGGCAGGCAUCAAAAUAAAUAGUCUUGCGCUCAACCGGAAAGUCUGUAAUCAUUUUAAGGGUA [G44A A68G G93U A114G],0.08
19,GUUAACGGUCAUAGGCCAUGGAAACUAGGAGCACCAUUUCGCUGUCAGUGAAGAAAUGGACAAAGAAAAUCUGGGCCAGGCAGGCAUCAAAAGAAAUAGUCUUGCGCUCAACCAGUAAGUCUGUAAUCACUUUAAGGGUA [C45U A59G A116U U130C],0.25
20,GUUAACGGUCAUAGGCCAUGGAAACUAGGAGCACCAUUUCGCUGUCAGUGAAGAAAUGAACAAAGAAAAUCUGGGCCAGGCGGGCAUCAAAAGAAAUAGUCUUGCGCUCAACCAGAAAGUCUGUAAUCAUUUUAAGGGUG [C45U A82G A140G],0.39
